Data: PMC5062570 (Nature Communications, 2016)

Assays:
[1] = molecular target: PF-7802-labelled proteins in ARPE-19 cells (Homo sapiens, UniProt O15173); conditions: replicates in separate columns
[2] = molecular target: PF-7802-labelled proteins in ARPE-19 cells (Homo sapiens, UniProt O60506); conditions: SYNCRIP Heterogeneous nuclear ribonucleoprotein Q (O60506)
[3] = molecular target: PF-7802-labelled proteins in ARPE-19 cells (Homo sapiens, UniProt O75390); conditions: protein CS Citrate synthase, mitochondrial (O75390)
[4] = molecular target: PF-7802-labelled proteins in ARPE-19 cells (Homo sapiens, UniProt P02786)
Chain of UniProt P02786 (P02786 whole entry): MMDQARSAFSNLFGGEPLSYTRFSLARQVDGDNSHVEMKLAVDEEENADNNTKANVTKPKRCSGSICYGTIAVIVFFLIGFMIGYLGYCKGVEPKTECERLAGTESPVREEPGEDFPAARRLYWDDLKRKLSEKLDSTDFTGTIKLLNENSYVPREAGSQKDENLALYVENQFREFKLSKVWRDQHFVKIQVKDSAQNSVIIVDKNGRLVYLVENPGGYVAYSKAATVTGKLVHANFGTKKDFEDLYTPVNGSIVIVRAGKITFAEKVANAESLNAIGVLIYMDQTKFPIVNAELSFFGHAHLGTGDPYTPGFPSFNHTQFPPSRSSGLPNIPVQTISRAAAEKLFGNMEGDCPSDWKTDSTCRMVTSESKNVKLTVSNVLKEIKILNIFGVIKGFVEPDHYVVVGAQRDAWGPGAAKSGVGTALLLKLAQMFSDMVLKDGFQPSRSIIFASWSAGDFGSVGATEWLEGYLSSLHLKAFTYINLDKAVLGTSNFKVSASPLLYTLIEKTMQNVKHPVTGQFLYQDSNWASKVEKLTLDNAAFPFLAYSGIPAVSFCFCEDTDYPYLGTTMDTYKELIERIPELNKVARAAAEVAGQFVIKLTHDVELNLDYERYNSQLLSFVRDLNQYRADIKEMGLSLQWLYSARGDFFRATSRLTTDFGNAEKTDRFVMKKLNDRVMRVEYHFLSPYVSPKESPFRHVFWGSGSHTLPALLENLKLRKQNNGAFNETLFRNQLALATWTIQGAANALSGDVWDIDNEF

[5] = molecular target: PF-7802-labelled proteins in ARPE-19 cells (Homo sapiens, UniProt P10321); conditions: protein HLA-C HLA class I histocompatibility antigen, Cw-7 alpha chain (P10321); one column per replicate
[6] = molecular target: PF-7802-labelled proteins in ARPE-19 cells (Homo sapiens, UniProt P14866); conditions: protein HNRNPL Heterogeneous nuclear ribonucleoprotein L (P14866); one column per replicate
Chain of UniProt P14866 (P14866 whole entry): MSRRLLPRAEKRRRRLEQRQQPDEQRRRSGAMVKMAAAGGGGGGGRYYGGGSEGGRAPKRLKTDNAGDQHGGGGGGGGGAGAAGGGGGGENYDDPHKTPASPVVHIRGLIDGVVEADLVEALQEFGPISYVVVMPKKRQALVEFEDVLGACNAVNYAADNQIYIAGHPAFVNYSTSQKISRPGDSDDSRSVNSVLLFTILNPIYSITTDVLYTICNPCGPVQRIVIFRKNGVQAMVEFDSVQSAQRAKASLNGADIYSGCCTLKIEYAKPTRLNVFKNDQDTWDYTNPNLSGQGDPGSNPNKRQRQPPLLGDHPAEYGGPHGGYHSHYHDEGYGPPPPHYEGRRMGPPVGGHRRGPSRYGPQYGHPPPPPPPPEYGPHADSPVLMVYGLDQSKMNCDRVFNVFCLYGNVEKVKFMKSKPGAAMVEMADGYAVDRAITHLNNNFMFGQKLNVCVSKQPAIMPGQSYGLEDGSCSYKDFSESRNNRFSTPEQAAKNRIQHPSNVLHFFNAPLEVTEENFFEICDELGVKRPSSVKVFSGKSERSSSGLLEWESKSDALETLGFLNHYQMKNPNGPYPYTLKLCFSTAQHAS

[7] = molecular target: PF-7802-labelled proteins in ARPE-19 cells (Homo sapiens, UniProt P39023); conditions: protein RPL3 60S ribosomal protein L3, P39023
[8] = molecular target: T1, PF-7802-labelled proteins in ARPE-19 cells (Homo sapiens, UniProt P50990); conditions: for Median SILAC Ratio (Heavy/Light): protein CCT8 T-complex protein 1 subunit theta (P50990)
T1 sequence (P50990 1-548): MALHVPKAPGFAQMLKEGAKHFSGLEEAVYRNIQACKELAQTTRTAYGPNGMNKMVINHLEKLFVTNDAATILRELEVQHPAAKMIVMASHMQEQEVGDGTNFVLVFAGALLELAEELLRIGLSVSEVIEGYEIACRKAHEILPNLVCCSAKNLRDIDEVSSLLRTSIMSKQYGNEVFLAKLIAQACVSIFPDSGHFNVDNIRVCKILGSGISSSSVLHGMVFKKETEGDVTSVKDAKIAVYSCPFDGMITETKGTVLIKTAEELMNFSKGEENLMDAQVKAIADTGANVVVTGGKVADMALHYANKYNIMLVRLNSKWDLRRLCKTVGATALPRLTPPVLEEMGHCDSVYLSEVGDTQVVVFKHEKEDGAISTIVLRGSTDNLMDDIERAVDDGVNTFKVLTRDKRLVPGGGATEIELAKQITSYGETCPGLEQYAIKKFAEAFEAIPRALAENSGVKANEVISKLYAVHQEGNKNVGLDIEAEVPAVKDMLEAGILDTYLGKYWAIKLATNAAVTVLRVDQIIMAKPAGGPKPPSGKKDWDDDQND

[9] = molecular target: T2, PF-7802-labelled proteins in ARPE-19 cells (Homo sapiens, UniProt P50991); conditions: for Median SILAC Ratio (Heavy/Light): protein CCT4 T-complex protein 1 subunit delta (P50991)
T2 sequence (P50991 1-539): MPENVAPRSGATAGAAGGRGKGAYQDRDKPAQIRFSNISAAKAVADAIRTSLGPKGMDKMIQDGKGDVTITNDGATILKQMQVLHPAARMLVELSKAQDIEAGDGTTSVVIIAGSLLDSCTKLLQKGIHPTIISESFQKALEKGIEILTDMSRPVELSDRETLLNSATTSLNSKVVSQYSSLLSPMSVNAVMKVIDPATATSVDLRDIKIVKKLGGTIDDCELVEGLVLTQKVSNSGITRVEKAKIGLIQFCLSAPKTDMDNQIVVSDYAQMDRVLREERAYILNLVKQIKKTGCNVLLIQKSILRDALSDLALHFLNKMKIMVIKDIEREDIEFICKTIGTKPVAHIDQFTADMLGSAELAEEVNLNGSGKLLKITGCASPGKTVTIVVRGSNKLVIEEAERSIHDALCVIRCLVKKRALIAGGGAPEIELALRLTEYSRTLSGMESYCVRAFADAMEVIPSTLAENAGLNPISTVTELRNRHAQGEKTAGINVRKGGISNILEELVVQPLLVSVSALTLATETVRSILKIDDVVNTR

[10] = molecular target: PF-7802-labelled proteins in ARPE-19 cells (Homo sapiens, UniProt P54819); conditions: protein AK2 Adenylate kinase 2, mitochondrial (P54819)
[11] = molecular target: PF-7802-labelled proteins in ARPE-19 cells (Homo sapiens, UniProt P62241); conditions: protein RPS8 40S ribosomal protein S8, P62241
[12] = molecular target: PF-7802-labelled proteins in ARPE-19 cells (Homo sapiens, UniProt P62834); conditions: protein RAP1A Ras-related protein Rap-1A, P62834
Chain of UniProt P62834 (P62834 whole entry): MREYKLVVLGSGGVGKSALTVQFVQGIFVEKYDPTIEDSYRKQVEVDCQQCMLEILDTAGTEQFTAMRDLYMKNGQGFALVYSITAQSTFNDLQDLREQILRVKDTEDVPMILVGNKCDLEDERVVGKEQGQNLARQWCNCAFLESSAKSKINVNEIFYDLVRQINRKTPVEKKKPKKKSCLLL

[13] = molecular target: PF-7802-labelled proteins in ARPE-19 cells (Homo sapiens, UniProt P68431); conditions: protein HIST1H3J Histone H3.1 (P68431); one column per replicate
[14] = molecular target: PF-7802-labelled proteins in ARPE-19 cells (Homo sapiens, UniProt Q07065); conditions: protein CKAP4 Cytoskeleton-associated protein 4 (Q07065)
Chain of UniProt Q07065 (Q07065 whole entry): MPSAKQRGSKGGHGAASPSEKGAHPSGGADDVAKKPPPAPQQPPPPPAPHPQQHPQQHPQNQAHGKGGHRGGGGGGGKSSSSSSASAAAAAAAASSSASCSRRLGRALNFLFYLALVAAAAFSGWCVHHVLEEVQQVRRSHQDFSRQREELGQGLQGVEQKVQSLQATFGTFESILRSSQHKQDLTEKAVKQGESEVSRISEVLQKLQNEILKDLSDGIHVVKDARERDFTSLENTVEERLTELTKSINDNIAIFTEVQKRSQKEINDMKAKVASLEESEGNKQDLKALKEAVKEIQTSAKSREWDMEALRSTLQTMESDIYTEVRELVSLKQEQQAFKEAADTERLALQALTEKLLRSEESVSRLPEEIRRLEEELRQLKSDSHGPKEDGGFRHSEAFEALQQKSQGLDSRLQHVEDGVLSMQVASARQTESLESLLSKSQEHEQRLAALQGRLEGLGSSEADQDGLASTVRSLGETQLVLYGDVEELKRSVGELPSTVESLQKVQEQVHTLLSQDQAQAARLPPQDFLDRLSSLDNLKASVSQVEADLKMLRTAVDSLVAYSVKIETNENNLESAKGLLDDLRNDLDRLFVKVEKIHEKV

[15] = molecular target: PF-7802-labelled proteins in ARPE-19 cells (Homo sapiens, UniProt Q07955); conditions: SRSF1 Serine/arginine-rich splicing factor 1 (Q07955)
Chain of UniProt Q07955 (Q07955 whole entry): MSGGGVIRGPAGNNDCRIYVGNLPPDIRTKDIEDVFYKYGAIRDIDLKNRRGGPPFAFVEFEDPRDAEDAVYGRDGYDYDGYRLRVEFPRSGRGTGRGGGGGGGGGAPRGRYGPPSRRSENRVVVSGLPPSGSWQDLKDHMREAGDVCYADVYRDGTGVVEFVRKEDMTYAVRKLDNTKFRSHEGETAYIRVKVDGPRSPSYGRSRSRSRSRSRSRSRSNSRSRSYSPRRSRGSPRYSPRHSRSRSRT

[16] = molecular target: PF-7802-labelled proteins in ARPE-19 cells (Homo sapiens, UniProt Q6PIU2); conditions: protein NCEH1 Neutral cholesterol ester hydrolase 1 (Q6PIU2); replicates in separate columns
Chain of UniProt Q6PIU2 (Q6PIU2 whole entry): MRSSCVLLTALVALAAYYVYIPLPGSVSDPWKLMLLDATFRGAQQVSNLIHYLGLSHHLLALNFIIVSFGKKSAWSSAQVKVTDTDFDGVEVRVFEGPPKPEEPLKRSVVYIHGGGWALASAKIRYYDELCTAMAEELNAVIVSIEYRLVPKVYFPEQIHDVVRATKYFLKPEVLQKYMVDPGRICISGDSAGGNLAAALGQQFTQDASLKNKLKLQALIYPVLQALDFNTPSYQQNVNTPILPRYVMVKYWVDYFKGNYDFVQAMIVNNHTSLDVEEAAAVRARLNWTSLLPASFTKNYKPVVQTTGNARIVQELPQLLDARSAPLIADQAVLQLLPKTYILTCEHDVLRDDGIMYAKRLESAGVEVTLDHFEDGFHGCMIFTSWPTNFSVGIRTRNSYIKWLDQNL

Chain of UniProt O15173 (O15173 whole entry): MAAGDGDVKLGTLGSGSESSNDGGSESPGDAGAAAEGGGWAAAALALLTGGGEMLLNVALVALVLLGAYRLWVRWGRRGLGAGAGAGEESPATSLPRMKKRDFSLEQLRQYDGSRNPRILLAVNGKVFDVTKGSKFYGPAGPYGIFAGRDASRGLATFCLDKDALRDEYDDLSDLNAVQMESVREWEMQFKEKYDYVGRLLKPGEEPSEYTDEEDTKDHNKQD
Chain of UniProt O60506 (O60506 whole entry): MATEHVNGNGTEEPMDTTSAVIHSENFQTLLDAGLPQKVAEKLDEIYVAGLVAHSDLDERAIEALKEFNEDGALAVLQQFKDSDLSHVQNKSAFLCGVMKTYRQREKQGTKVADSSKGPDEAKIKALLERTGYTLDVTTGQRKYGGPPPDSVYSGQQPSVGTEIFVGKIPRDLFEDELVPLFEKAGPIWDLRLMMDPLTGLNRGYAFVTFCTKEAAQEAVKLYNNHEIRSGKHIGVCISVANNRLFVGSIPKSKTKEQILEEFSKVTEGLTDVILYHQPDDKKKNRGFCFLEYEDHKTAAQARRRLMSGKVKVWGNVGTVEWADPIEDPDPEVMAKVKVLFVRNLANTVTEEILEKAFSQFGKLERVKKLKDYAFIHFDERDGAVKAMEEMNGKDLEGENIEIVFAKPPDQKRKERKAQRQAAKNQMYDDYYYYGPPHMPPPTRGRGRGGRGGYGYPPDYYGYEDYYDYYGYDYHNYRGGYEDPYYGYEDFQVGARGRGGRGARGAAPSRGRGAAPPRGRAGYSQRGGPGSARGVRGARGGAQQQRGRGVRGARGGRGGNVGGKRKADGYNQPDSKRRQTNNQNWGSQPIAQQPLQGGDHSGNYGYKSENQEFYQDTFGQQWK

CNC1CCN(C(=O)C[C@@H](Cc2ccccc2)C(=O)N[C@@H](CSC)C(=O)N[C@@H](CC2CCCCC2)[C@@H](O)C(=O)OC(C)C)CC1 [CP-108671, reference compound]
Median SILAC Ratio (Heavy/Light) ([1]; protein PGRMC2 Membrane-associated progesterone receptor component 2 (O15173)): 1.254 | Median SILAC Ratio (Heavy/Light) [2]: 1.127 | Median SILAC Ratio (Heavy/Light) [3]: 1.054 | Median SILAC Ratio (Heavy/Light) ([4]; TFRC Transferrin receptor protein 1 (P02786)): 1.623 | Median SILAC Ratio (Heavy/Light) [5]: 1.094 | Median SILAC Ratio (Heavy/Light) [6]: 0.7965 | Median SILAC Ratio (Heavy/Light) [7]: 1.433 | SILAC ratio (DMSO/CP-108671) ([8]; P50990 CCT8 T-complex protein 1 subunit theta): 0.75 | Median SILAC Ratio (Heavy/Light) [8]: 1.327 | SILAC ratio (DMSO/CP-108671) ([9]; P50991 CCT4 T-complex protein 1 subunit delta): 0.76 | Median SILAC Ratio (Heavy/Light) [9]: 1.314 | Median SILAC Ratio (Heavy/Light) [10]: 2.186 | Median SILAC Ratio (Heavy/Light) [11]: 1.683 | Median SILAC Ratio (Heavy/Light) [12]: 1.024 | Median SILAC Ratio (Heavy/Light) [13]: 1.079 | Median SILAC Ratio (Heavy/Light) [14]: 1.277 and 0.8671 | Median SILAC Ratio (Heavy/Light) [15]: 0.979 | Median SILAC Ratio (Heavy/Light) [16]: 1.21

Cc1cc([C@H]2C[C@H]3[C@@H](C)SC(N)=N[C@@]3(c3ccc(F)cc3F)CO2)on1 [PF-9283]
Median SILAC Ratio (Heavy/Light) ([1]; […]): 1.341 | Median SILAC Ratio (Heavy/Light) [2]: 0.9772 | Median SILAC Ratio (Heavy/Light) [3]: 1.116 | Median SILAC Ratio (Heavy/Light) [4]: 1.437 and 0.8521 | Median SILAC Ratio (Heavy/Light) [5]: 0.1709 | Median SILAC Ratio (Heavy/Light) [6]: 0.801 and 0.9309 | Median SILAC Ratio (Heavy/Light) [7]: 1.235 | Median SILAC Ratio (Heavy/Light) [8]: 1.569 | Median SILAC Ratio (Heavy/Light) [9]: 1.377 | Median SILAC Ratio (Heavy/Light) [10]: 1.796 | Median SILAC Ratio (Heavy/Light) [11]: 1.7814 and 0.9885 and 1.1 | Median SILAC Ratio (Heavy/Light) [12]: 1.132 and 0.6485 | Median SILAC Ratio (Heavy/Light) [13]: 1.208 | Median SILAC Ratio (Heavy/Light) [14]: 1.279 and 0.7219 and 0.7482 | Median SILAC Ratio (Heavy/Light) [15]: 1.087 | Median SILAC Ratio (Heavy/Light) [16]: 1.33 and 2.134

Where “and” joins values, the source holds several entries; their conditions need not be identical. Equal entries are not always repeated. Where two headings read alike, the source gives them in different places.
